Test results as given in the RNAGym collection of RNA variant scans (doi:10.7554/elife.90254).
The source gives no read counts; variants with many changes may rest on few reads.

B1: LINE1-full (parent)
chain: UACGUAGGUGGUUUUCCCCUGAUAGUGCUAAGGGGGCCUGGAAGUUUGGACUGGGCAGAGCUCAACACAGCGUGGCAAAGUGGCUGUGGCUAGACUGCCUCUCUGGAUUCCUCGUCACUCAGCAGGGCAUCUCUGAGAGAAAUGCC

Variants of: B1
Test: self-cleavage, relative activity (ratio to wild type); higher = more cleavage; in vitro, sequencing; the parent is a self-cleaving ribozyme

Variant	self-cleavage
UACGUGGGUGGAUUUCCCCUGAUAGUGCUAAGGGGGCCUGGAGGUUUGGACUGGGCAGAGCACAACACAGCGUGGCAAAGUGGCUGUGGCUAGACUGCCUCUCUGGAAUCCUCGUCACUCAGAAGGGCAUCUCUGAGAGAAACGCC	0.33
UACGUGGGUGGUUUUCCCCUGAUAGUACUAGGGGGGCCUGGAAGUUUGGACUGGGCAGAGCUCAACACAGCGUGGCAAAGUGGCUGUGGCUAGACUGCCUCUCUGGAUUCCUCGUCACUCAGCAGGGCAUCUCUGAGAGAAGUGCC	1.1
UACGUGGGUGGAUAUCCCCUGAUAGUGCUAAGGGGGCCUGGAAGUUUGGACUGGGCAGAACUCAACACAGCGUGGCAAAGUGGCUGCGGCUAGACUGCCUCUCUGGAUUCCUCGUCACUCAGCAGGGCAUCGCUGAGAGAAAUGCC	0.19
UACGUGGAUGGUUUUCCCCUGAUAGUGCUAAGGGGGCCUGGAAGUAUGGACUGGGCAGAGCUCAACACAGCGUGGCAAAGUGGCUGUGGCUAGACUGCCUCUCUGGAUUCCUCGUCACUCAGCAGGGCAUCUCUGAGAGAAAUGCC	0.85
UACGUGGGUGGUUUUCUCCUGAUAGUGCUAAGGGGGCCUGGAAGUUUGGACUGGGCAGAGCUCAACACAGCGUGGCAGAGUGGCUGUGGCUAGACUGCCUCUCUGGAUUCCUCGUCACUCAGCAGGGCACCUCUGAGAGAAAUGCC	1.67
UACGUGGGUGCUUUUCCCCUGAUAGUGCUAAGGGGGCCUGGAAGUUUGGACUGGGCAGAGCUCAACACAGCGUGGCAAAGUGGCUGUGGCUAGACUGCCUCUCUGGAUUCCUCGUCACUCAGCAGGGCAUCUCUGGGAGAAAUGCC	1.25
UACGUGGGUGGUUUUCCCCUGAUAGUGCUAAGGGGGCCUGGAAGUUUGGACUGGGCAGAGCUCAACACAGCGUGGCAAGAUGGCUGUGGCUAGACUGCCUCUCUGGAUUCCUCGUCACUCGGCUGGGCAUCUCUGAGAGAAAUGCC	1.73
UACGUGGGUGGUUUUCCCCUGAUAGUGUUAAGGGGGCCUGGAAGUUUAGACUGGGCAGAGCUCAACACAGCGUGGCAGAGUGGCUGUGGCUAGACUGCCUCUCUGGAUUCCUCGUCACUCAGCAGGGCAUCUCUGAGAGAAAUGCC	0.4
UACGUGGGCGGUUUUCCCCUGAUAGUGCUAAGGGGGCCUGGAAGUUUGGACUGGGCAGAGCUCAACACAGCGUGGCAAAGUGGCUGUGGCUAGACUGCCUCUCUGGAUCCCUCGUCACUCAGCAGGGCAUCUCUGAGAGAAAUGCC	1.02
UACGUGGGCGGUUUUCCCCUGAUAGUGCUAAGGGGGCCUGGAAGUUUGGACCGGGCUGAGCUCAACACAGCGUGGCUAAGUGGCUAUGUCUAGACUGCCUCUCUGGAUUCCUCGUCACUCAGCAGGGCAUCUCUGAGAGAAAUGCC	0
UACGUGGGUGGUUUUCCCCUGAUAGUACUAAGGGGGCCUGGAAGUUUGGACUGGGCAGAACUCAACACAGCGUGGCAAAGUGGCUGUGGCUAGACUGCCUCUCUGGAUUCCUCGUCACUCAGCAGGGCAUCUCUGAGAGAAAUGCC	0.09
UACGUGGGUGGUUUUCCCCUGAUAGUUCUAAGGGGGCCUAGAAGUUAGGAUUGGGCAGAGCUCAACACAGCGAGGCAAAGUGGCUGUGGCUAGACUGCCUCUCUGGAUUCCUCGUCACUCAGCAGGGCAUCUCUGAGAGAAAUGCC	1.06
UACGUGGGUGGUUUUCCCCUGAUAGUGCUAAGGGGGCCUGUAAGUUUGGACUGGGCAGAGCUCAACACAGCGUGGCAAAGUGGCUGCGGCUAGACUGCCUCUCUGGAUUCCUCGUCACUCAGCAGGGCAUCUCUGAGAGAAAUGCC	0.43
UACGUGGAUGGUUUUCCCCUGAUAGUGCUAAGGGGGCCUGGAAGUUCGGACUGGGCAGAGCACAACACAGCGUGGCUAAGUGGCUGUGGCUAGACUGCCUCUCUGGAUUCCUCGUCACUCAGCAGGGCAUCUCUGAGAGAAAUGCC	0.34
UACGUGGGUGGCUUUCCCCUGAUAGUGCUAAGGGGGCCUGGAAGUUUGGACUGGGCAGAGCUCAACACAGCGUGGCAAAAUGGCUGUGGCUAGACUGCCUCUCUGGAUUCCUCGUCACUCAGCAGGGCAUCUCUGAGAGAAAUGCC	1.29
UACGUGGGUAGUUUUCCCCUGAUAGUGCUAAGGGGGCCUGGAAGUUUGGACUGGGCAGAGCUCAACACAGCGUGGCAAAGUGGCUGUGGCUAGACUGCCUCUCUGGAUUCCUCGUCACUCAGCAGGGCCUCUCUGAGAGAAAUGCC	0.43
UACGUGGGUGGUUUUCCCCUGAUAGUGCUAAGGGGGCCUGGAAGUUUGGACUGGGCAGAGCUCAACACAGCGUGGCAAAGUGGCUGUGGCUAGACUGCCUCUCUGGAUUCCUCGUCACUCAGCAGGGCAUCUCUGUGGGAAAUGCC	0
UACGUGGGUGGUUUUCCCCUGAUAGUGCUAAGGGGGCCUGGAAGUUUGGACUGGGCAGAGCUCAACACAGCGUGGCAAAGUGGCUGUGGCUAGACUGCCUCUCUGGAUUCCUUGUCACUCAGCAGGGCAUCUCUGAGAGAGAUGCC	0.69
UACGUGGGUGGGUUUCCCCUGAUAGUGCUAAGGGGGCCUGGAAGUUUGGACUGGGCAGAGCUCAACGCAGCGUGGCAAAGUGGCUGUGGCUAGACUGCCUCUCUGGAUUCCUCGUCACUCAGCAGGGCACCUCUGAGAGAAAUGCC	0
UACGUGGGUGGUUUUCCCCUGAUAGUGCUAAGGGGGCCUGGAAGUUUGGACUGGGCAGAGCUCAACACAGCGUGGCAAAGUGGCUGUGGCUAGACUGCCUCUCUGGAUUCCUCGUCACUCAGCAGGGCAUCUCUGAGAGGACUGCC	0.59
